# Experimental data: PubChem BioAssay AID1347073 (National Center for Advancing Translational Sciences (NCATS), 2019)
# Out of some 45,000 compounds screened, about 200 (0.44%) were called active. Not shown: some 7% with an inconclusive outcome. Calls follow the shape of the dose curve; as a rule, active = well fitted activation curve with a large enough effect; inconclusive = small, poorly fitted or top-dose-only effect; inactive = no such curve, though single readings can be large or run the other way. Some of the results follow.
# Test: qHTS of TDP-43 Inhibitors: NCGC Sytravon Library Screen; also: 0% is about no effect; nearly all actives have a fitted effect of over 55% in size
# Details: yeast TDP-43 toxicity rescue, BacTiter-Glo growth, 24 h; series mostly up to 46.1 µM; growth rescue (activation): at the top concentration
# How it was run: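 TDP-43-expressing yeast, pregrown in raffinose, seeded at OD600 0.02 in galactose medium with compound for 24 hr at 30 deg C. Growth read by BacTiter-Glo luminescence, so rescue of toxicity appears as activation.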
row,SMILES,growth rescue (activation)
1,Cc1cccc(/C(N)=N/OC(=O)COc2ccccc2Cl)c1,inactive: 21.1%
2,CCOC(=O)c1ccc(N=c2scc(C)n2CC)cc1,inactive: 20.1%
3,CC(C)n1cc([C@@H]2C[C@H]3CN(Cc4cccc(Cl)c4)C(=O)[C@]34CCCN24)cn1,inactive: -12.7%
4,COc1cc(/C=C/C(=O)NCc2ccccn2)cc(OC)c1OC,inactive: 27.1%
5,CCOc1ccc(CN(C)CCc2ccccn2)cc1,inactive: -5.63%
6,O=C(COC(=O)CCC1CCCC1)Nc1nc2c(F)c(F)c(F)cc2s1,inactive: 13.9%
7,Cc1ccc(NC(=O)CC(=O)Nc2ccc(C)c(C)c2)cc1C,inactive: 5.64%
8,COc1cccc(CC2(CO)CCCN(Cc3cn[nH]c3-c3ccccc3)C2)c1 (stereo unspecified),inactive: -0.758%
9,CCNC(=S)N/N=C(\C)c1ccc2c(c1)OCCO2,inactive: 23%
10,Cc1nc(CCNC(=O)CC2C(=O)NCCN2Cc2ccc(F)cc2)sc1C (stereo unspecified),inactive: -1.21%
11,O=[N+]([O-])c1ccc(OCc2nnc(-c3ccccc3)o2)cc1,inactive: -2.46%
12,COc1ccc(OCc2nnc(SCC(=O)Nc3ccccc3C#N)o2)cc1,inactive: -2.09%
13,CC(c1ccccc1)n1c(S(=O)(=O)O)nc2ccccc21 (stereo unspecified),inactive: -1.34%
14,Cc1[nH]n(-c2ccccc2)c(=O)c1C(c1cc(Cl)ccc1O)c1c(C)[nH]n(-c2ccccc2)c1=O,inactive: 0.238%
15,CSc1ccccc1C(=O)Nc1cc([N+](=O)[O-])ccc1C,inactive: 27.9%
16,COc1ccc(NC(=S)N2CCC(NC(=O)c3ccc(F)cc3)CC2)cc1,inactive: -5.51%
17,Cc1c(CNC2CCCC2)c(C(=O)O)c(C)n1Cc1ccccc1,inactive: 15.8%
18,C=CCN(C(=O)c1csnn1)C(C(=O)NCc1ccc(F)cc1)c1cccs1 (stereo unspecified),inactive: 12%
19,COc1ccc(-c2oc(=O)n(C)c2-c2ccc(OC)cc2)cc1,inactive: 26.4%
20,CCN(CC)c1ccc(NC(=O)OC)cc1,inactive: 13.2%
21,COc1ccc(C2=NOC(CNC(=S)N3CCOCC3)C2)cc1 (stereo unspecified),inactive: 9.74%
22,CCN(CC)C(=O)CSc1ccc(C(F)(F)F)cc1[N+](=O)[O-],inactive: 17.9%

row,SMILES,growth rescue (activation)
1,Cc1ccccc1NC(=O)CSc1nc2ccccc2c(=O)n1CC1CCCO1 (stereo unspecified),inactive: -3.76%
2,C/C(CC(=O)Nc1ccc2c(c1)OCCO2)=N\NC(=O)COc1ccccc1C,inactive: 2.45%
3,O=[N+]([O-])c1ccc(O)c(C=Nc2ccc3nc(-c4ccccc4)[nH]c3c2)c1,inactive: -10.9%
4,COc1cccc(-n2c(-c3ccccc3)c[nH]c2=S)c1,inactive: 9.64%
5,CN(NS(=O)(=O)c1ccc(Br)cc1)c1nc(C(F)(F)F)nc2ccccc12,inactive: 8.07%
6,O=C(NCc1n[nH]c(=S)n1-c1cccc(Cl)c1)c1ccc(S(=O)(=O)N2CCCCC2)cc1,inactive: 4.74%
7,Cc1cccn2c(=O)c3cc(C(=O)NCCN4CCOCC4)c(=N)n(CCN4CCOCC4)c3nc12,inactive: 6.75%
8,Cn1c(N)c(C(=O)CSc2nnc3n2CCCCC3)c(=O)n(C)c1=O,inactive: 18.9%
9,COc1ccc(NC(=O)CS(=O)CC(=O)N2CCN(C3CCCC3)CC2)cc1 (stereo unspecified),inactive: -14.8%
10,O=[N+]([O-])c1ccc(N2CCN(CCO)CC2)cc1NCc1ccco1,inactive: 14.3%
11,COc1cc(Cn2c3ccc(NC(=O)CC(C)c4ccccc4)cc3c(=O)n2C)ccc1F (stereo unspecified),inactive: -6.95%
12,CCn1c(O)c(/C=N/N=C2CCCCC2)c2cc(C3=NNC(=O)CC3)ccc21,inactive: 4.62%
13,Cc1occc1C(=O)N=Nc1c(O)n(C)c2ccccc12,inactive: 8.47%
14,COc1cccc(-c2nc(NCc3cccnc3)c3ccccc3n2)c1O,inactive: 10.5%
15,O=C(Nc1ccc(N2CCOCC2)cc1)c1ccc(COc2ccccc2)cc1,inactive: 5.54%
16,O=C(NNC(=O)c1cc(S(=O)(=O)N2CCOCC2)c(Cl)cc1Cl)c1ccccc1F,inactive: -1.39%
17,CCOc1ccccc1N1CCN(C(=O)c2ccc3nc(N)sc3c2)CC1,inactive: -0.049%
18,CN=C1S/C(=C\c2ccc(SC)cc2)C(=O)N1C,inactive: -0.807%
19,COc1ccccc1CNc1nc(NCc2ccc(C)cc2C)c2sccc2n1,inactive: -7.04%
20,COc1cc(OC)cc(OC2(C)CCN(Cc3ccc(OC(C)C)cc3)C2)c1 (stereo unspecified),inactive: -6.88%
21,Cc1ccc(NC(=O)N2CCc3cc(S(=O)(=O)N4CCC(C)CC4)ccc32)cc1,inactive: -3.78%
22,CCOc1ccccc1NC(=O)C1CCCN(S(C)(=O)=O)C1 (stereo unspecified),inactive: -0.117%

row,SMILES,growth rescue (activation)
1,CC1CCN(C(=O)Cn2c(=O)n(CCCCCC(=O)NCc3ccccc3Cl)c(=O)c3sccc32)CC1,inactive: -2.92%
2,COCCn1c(SCC(=O)Nc2ccc3[nH]c(=O)[nH]c3c2)nc2ccccc21,inactive: -0.437%
3,Cc1cc([N+](=O)[O-])ccc1NC(=O)CSc1nncn1-c1ccccn1,inactive: 1.67%
4,CCCC(=O)Nc1ccc(-c2csc(N/N=C\c3ccncc3)n2)cc1,inactive: 18.5%
5,CN1CCN(c2ccc(CNC(=O)C3Cc4c(-c5ccc6c(c5)OCO6)ccnc4O3)cc2)CC1 (stereo unspecified),inactive: 0.758%
6,O=C(Nc1cccc(NC(=O)c2ccc([N+](=O)[O-])o2)c1)c1ccco1,inactive: 12.9%
7,Cc1cc(Cl)ccc1NC(=O)Cn1nc(C)c2c(C)n(-c3ccccc3)nc2c1=O,inactive: 7.79%
8,Cc1nc2sc3c(c2c(=N)n1N)CCCC3,inactive: 4.09%
9,CC(C)[C@H](NC(=O)NC1CCN(Cc2ccccc2)CC1)C(=O)O,inactive: 0.36%
10,CN(C)CCNc1ncnc2c1ncn2[C@H]1CN(Cc2ccncc2)C[C@@H](CO)O1,inactive: -0.256%
11,Cc1cc(=O)oc2c(CN3CCCCC3)c(O)c(Cl)cc12,inactive: -2.82%
12,O=C(c1ccc(S(=O)(=O)N2CCOCC2)cc1)N1CCOCC1,inactive: -17.3%
13,CNC(=O)c1cc(S(=O)(=O)Nc2ccc(C)cc2C)ccc1C,inactive: -3.42%
14,Cc1cc(C)c(C(=O)COC(=O)Cn2nc(-c3ccccc3)oc2=O)cc1C,inactive: 26.8%
15,Cn1c(=O)c2c(nc(CN3CCN(C(=O)c4ccco4)CC3)n2CC(=O)C(C)(C)C)n(C)c1=O,inactive: 3.46%
16,N#C/C(=C(/O)c1ccc(C(=O)c2ccccc2)cc1)c1nc2ccccc2[nH]1,inactive: -3.57%
17,O=C(OCn1nnc2ccccc2c1=O)c1ccc2ccccc2n1,inactive: 3.95%
18,Cc1cc(Cl)ccc1NC(=S)NCC(C)C,inactive: 6.22%
19,CC(C)CNC(=O)C1(C)CCCN1C(=O)C(C)(C)Oc1ccc(Cl)cc1 (stereo unspecified),inactive: 29.4%
20,COCCNC(=O)C(OC(=O)C1=Cc2ccccc2OC1)C(C)C (stereo unspecified),inactive: -2.46%
21,CC(C)CC(NC(N)=O)C(=O)Nc1ccc(Oc2ccccc2)cc1 (stereo unspecified),inactive: 5.2%
22,Cc1cc(NC(=O)CSc2nnc(-c3ccccc3F)n2N)no1,inactive: 30.9%

row,SMILES,growth rescue (activation)
1,OC[C@@H]1CN(Cc2cccc(C(F)(F)F)c2)C[C@H](n2cnc3c(NCc4ccc(F)cc4)ncnc32)O1,inactive: 12.4%
2,Cc1ccc(/C=C2\SC(=S)N(CCC(=O)NNS(=O)(=O)c3ccc(C)cc3)C2=O)cc1,inactive: 12.5%
3,CCOC(=O)/C=C/C(=O)Nc1cccc([N+](=O)[O-])c1,inactive: -93.5%
4,Cc1ccc(C(=O)NNc2ncnc3ccccc23)cc1,inactive: -18.8%
5,O=C(N/N=C/c1ccc(O)c(O)c1O)/C(=C/c1ccc([N+](=O)[O-])cc1)NC(=O)c1ccccc1,inactive: -75.5%
6,CCN(CC)S(=O)(=O)c1cccc(C(=O)N2CC(O)CC2C(=O)O)c1 (stereo unspecified),inactive: -9.39%
7,O=S(=O)(CCc1ccncc1)c1ccc(Cl)cc1,inactive: 4.62%
8,CCn1nc(C)c(CN2CCN(Cc3cccc(OC)c3)C(CCO)C2)c1C (stereo unspecified),inactive: 4.65%
9,CCN(CC(=O)Nc1sc2c(c1C#N)CCCC2)CC(=O)NC1CCS(=O)(=O)C1 (stereo unspecified),inactive: 0.652%
10,CC(C)(C)OC(=O)N1CCC[C@H]1c1nnc(SCC(=O)Nc2cccc(Cl)c2)o1,inactive: 19.1%
11,Cc1cccc(C(=O)NCCNC(=O)c2cnccn2)c1,inactive: 14%
12,O=C(Cn1c(SCC(=O)NC2CCCC2)nnc1-c1ccncc1)Nc1ccc2c(c1)OCO2,inactive: 29.3%
13,Cn1c(-c2ccccc2)c(/C=N/NC(=O)c2cccnc2)c2ccccc21,inactive: 9.65%
14,Cc1ccc2[nH]cc(S(=O)(=O)c3ccc(C)c(C)c3)c(=O)c2c1,inactive: 12.6%
15,O=C(Cc1ccc(F)cc1)NC1CCSC1=O (stereo unspecified),inactive: 2.89%
16,CC(=O)c1c(C)[nH]c(C(=O)COc2ccc(C#N)cc2)c1C,inactive: 17.2%
17,CCc1cc2c(C)ccc(C)c2nc1SCC(=O)Nc1c[nH]c(=O)[nH]c1=O,inactive: 17.1%
18,O=C(OCN1C(=O)c2ccccc2C1=O)c1ccc(Cl)nc1,inactive: 18.2%
19,CC(C)N1CCN(Cc2cccc(-c3ccco3)c2)CC1CCO (stereo unspecified),inactive: 11.3%
20,CN1C(=O)C(CC(=O)Nc2ccc(F)cc2)N(Cc2cccs2)C1=S (stereo unspecified),inactive: -0.768%
21,O=C(CCNC(=O)c1ccco1)Nc1ccc(SC(F)F)cc1,inactive: 2.18%
22,Cc1cc(C)c[n+](-c2nc3ccccc3nc2[N-]S(=O)(=O)c2cccs2)c1,inactive: 6.41%

row,SMILES,growth rescue (activation)
1,Nc1cc(C(=O)O)ccc1Sc1ccccc1C(=O)O,inactive: 3.6%
2,CC1(c2ccc3ccccc3c2)NC(=O)N(CC(=O)O)C1=O (stereo unspecified),inactive: 12.9%
3,O=S1(=O)N=C(N(Cc2cccs2)c2ccc(O)cc2)c2ccccc21,inactive: -11.7%
4,COc1cc(C)ccc1OCCOCCOc1ccccc1[N+](=O)[O-],inactive: 35.8%
5,NS(=O)(=O)c1ccc(CCNC(=S)Nc2ccccc2)cc1,inactive: 8.93%
6,Cc1ccccc1N1CC(C(=O)NC2CCCC2)CC1=O (stereo unspecified),inactive: 3.42%
7,CCN(C(=O)CSc1ncccc1C(=O)O)C1CCCCC1,inactive: 0.732%
8,COc1cc(NC(=O)c2cccc3c(-c4cnn(C)c4)coc23)cc(OC)c1OC,inactive: 19.1%
9,COc1ccccc1CNC(=S)Nc1ccc(S(N)(=O)=O)cc1,inactive: -1.58%
10,O=C(NCc1cccs1)C1CCCN1C(=O)Nc1ccc(F)cc1 (stereo unspecified),inactive: 36.5%
11,O=C(COC(=O)c1ccc([N+](=O)[O-])o1)Nc1nc2ccccc2s1,inactive: 11.6%
12,Cn1cnnc1Sc1ccc(C(=O)NCCC23CC4CC(CC(C4)C2)C3)cc1[N+](=O)[O-],inactive: -11.9%
13,NNC(=O)c1ccc(COc2ccc3c(c2)CCC3)cc1,inactive: 23.1%
14,CN(C)c1ccc(S(=O)(=O)NCC(=O)NCC2CCCCC2)cc1[N+](=O)[O-],inactive: 10.3%
15,Cc1sc2nc(C(C)C)nc(SCC(=O)NC3CC3)c2c1C,inactive: -2.77%
16,COc1ccc(N=C2SC(CC(=O)Nc3ccc(F)cc3)C(=O)N2Cc2ccco2)cc1 (stereo unspecified),inactive: 5.92%
17,CCc1cc(=O)oc2c3c(cc(OCC(=O)NCCC(=O)O)c12)OC(C)(C)CC3,inactive: -3.64%
18,CC(OC(=O)C1=Cc2ccccc2OC1)C(=O)NCC1CCCO1 (stereo unspecified),inactive: -12.8%
